Experimental data taken from a collection of fitness landscapes (doi:10.1016/j.celrep.2020.107928).
In all, about 81,000 sequences were measured (“one-hybrid fitness for binding parS DNA”: median about -0.17, highest 2% from about 0.51 on). The list shows a part of the results.

B1: Caulobacter ParB omega fusion; a variant is named by its letters at X, in order, B8GW30 (parent)
chain: MESVVVGEPGMSEGRRGLGRGLSALLGEVDAAPAQAPGEQLGGSREAPIEILQRNPDQPRRTFREEDLEDLSNSIREKGVLQPILVRPSPDTAGEYQIVAGERAWRAAQRAGLKTVPIMVRELDDLAVLEIGIIENVQRADLNVLEEALSYKVLMEKFERTQENIAQTIGKSXSHVANXMRLLXLPDEVQSYLVSGELTAXHARAIAAAADPVALAKQIIEGGLSVRETEALARKAPNLSAGKSKGGRPPRVKDTDTQALESDLSSVLGLDVSIDHRGSTGTLTITYATLEQLDDLCNRLTRGI

Variants of: B1
Experiment: one-hybrid fitness for binding parS DNA (scaled: cognate 1, non-cognate 0); higher = stronger binding
Conditions: with parS DNA site
In short: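 Fitness is the rescaled log change in variant-to-wild-type read ratio, measured by Illumina sequencing of plasmids before and after bacterial one-hybrid selection. The scale puts cognate at 1 and non-cognate at 0. Selection of Caulobacter ParB libraries, four specificity codons randomised, took place in E. coli USO with a HIS3 reporter, site 19 bp from the promoter, over 48 hours at 37°C on M9-minus-histidine with 0.1 mM IPTG and 5 mM 3-AT.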

| Variant | one-hybrid fitness for binding parS DNA |
| --- | --- |
| ACRG | ≤ 0.2 |
| MNRY | ≤ 0.2 |
| RLGT | 0.925 |
| YYHL | ≤ 0.2 |
| QYDL | ≤ 0.2 |
| GRTV | ≤ 0.2 |
| RTGT | 0.912 |
| ASEM | ≤ 0.2 |
| AHFR | ≤ 0.2 |
| NLNN | ≤ 0.2 |
| GVQN | 0.23 |
| YNQC | ≤ 0.2 |
| TVDN | ≤ 0.2 |
| VTYI | ≤ 0.2 |
| PDRM | ≤ 0.2 |
| QARC | ≤ 0.2 |
| SINI | ≤ 0.2 |
| QYLI | ≤ 0.2 |
| RGCP | ≤ 0.2 |
| QKTG | ≤ 0.2 |
| PVKE | ≤ 0.2 |
| IPSF | ≤ 0.2 |
| NTPM | ≤ 0.2 |
| PSGT | ≤ 0.2 |

| Variant | one-hybrid fitness for binding parS DNA |
| --- | --- |
| QEYI | ≤ 0.2 |
| SVMT | ≤ 0.2 |
| LQHT | ≤ 0.2 |
| FQMS | ≤ 0.2 |
| RKFM | 0.319 |
| PAET | ≤ 0.2 |
| CKIL | ≤ 0.2 |
| FAHS | ≤ 0.2 |
| FVSS | ≤ 0.2 |
| YTYW | ≤ 0.2 |
| PEFG | ≤ 0.2 |
| ENGW | ≤ 0.2 |
| MYPC | ≤ 0.2 |
| NFSL | ≤ 0.2 |
| CAAF | ≤ 0.2 |
| LFKK | ≤ 0.2 |
| TTWR | ≤ 0.2 |
| IQYR | ≤ 0.2 |
| LEMG | ≤ 0.2 |
| TFQV | ≤ 0.2 |
| RNMK | ≤ 0.2 |
| PMNC | ≤ 0.2 |
| YELR | ≤ 0.2 |
| GVQS | ≤ 0.2 |

| Variant | one-hybrid fitness for binding parS DNA |
| --- | --- |
| WVTF | ≤ 0.2 |
| RGFF | ≤ 0.2 |
| PIDV | ≤ 0.2 |
| SAGV | ≤ 0.2 |
| RLMI | ≤ 0.2 |
| VAYC | ≤ 0.2 |
| DRHT | ≤ 0.2 |
| NASW | ≤ 0.2 |
| LYNI | ≤ 0.2 |
| HHGV | ≤ 0.2 |
| VIDW | ≤ 0.2 |
| QVDP | ≤ 0.2 |
| YCFG | ≤ 0.2 |
| RCVP | ≤ 0.2 |
| RQQY | 0.45 |
| QWLV | ≤ 0.2 |
| TMKM | ≤ 0.2 |
| LTDA | ≤ 0.2 |
| GIHL | ≤ 0.2 |
| LKCF | ≤ 0.2 |
| NLIH | ≤ 0.2 |
| PIHH | ≤ 0.2 |
| RGVW | ≤ 0.2 |
| KRFR | ≤ 0.2 |

| Variant | one-hybrid fitness for binding parS DNA |
| --- | --- |
| IALT | ≤ 0.2 |
| LNIN | ≤ 0.2 |
| SLCF | ≤ 0.2 |
| YHVV | ≤ 0.2 |
| RVLW | 0.288 |
| RWTC | 0.79 |
| YKGC | ≤ 0.2 |
| QITW | ≤ 0.2 |
| RLYM | 0.364 |
| HEMM | ≤ 0.2 |
| GFYV | ≤ 0.2 |
| KHTG | ≤ 0.2 |
| NGYG | ≤ 0.2 |
| QLSW | ≤ 0.2 |
| ERTS | ≤ 0.2 |
| NQGS | ≤ 0.2 |
| DHCA | ≤ 0.2 |
| QGTT | ≤ 0.2 |
| KDSR | ≤ 0.2 |
| ALLS | ≤ 0.2 |
| HQNS | ≤ 0.2 |
| VDWS | ≤ 0.2 |
| TFWL | ≤ 0.2 |
| TDGR | ≤ 0.2 |

| Variant | one-hybrid fitness for binding parS DNA |
| --- | --- |
| FTRD | ≤ 0.2 |
| PRTM | ≤ 0.2 |
| AYVR | ≤ 0.2 |
| RVSC | 0.977 |
| RCVQ | 0.223 |
| SCEQ | ≤ 0.2 |
| KTYS | ≤ 0.2 |
| RSCA | 0.579 |
| RRFP | ≤ 0.2 |
| AGTR | ≤ 0.2 |
| QNPV | ≤ 0.2 |
| PPSY | ≤ 0.2 |
| HWAT | ≤ 0.2 |
| HVEA | ≤ 0.2 |
| GGMA | ≤ 0.2 |
| PVYC | ≤ 0.2 |
| HPHC | ≤ 0.2 |
| EKPV | ≤ 0.2 |
| PLPQ | ≤ 0.2 |
| LPGE | ≤ 0.2 |
| RAAQ | ≤ 0.2 |
| QHMY | ≤ 0.2 |
| QFVA | ≤ 0.2 |
| RRGN | 0.777 |

| Variant | one-hybrid fitness for binding parS DNA |
| --- | --- |
| HDDQ | ≤ 0.2 |
| SESV | ≤ 0.2 |
| QMLQ | ≤ 0.2 |
| DTKV | ≤ 0.2 |
| HEYS | ≤ 0.2 |
| RGRG | 0.874 |
| HPAR | ≤ 0.2 |
| PMAT | ≤ 0.2 |
| NLCN | ≤ 0.2 |
| TLMS | ≤ 0.2 |
| LPHS | ≤ 0.2 |
| LHWK | ≤ 0.2 |
| ALVF | ≤ 0.2 |
| SVMG | ≤ 0.2 |
| PQNK | ≤ 0.2 |
| AQHK | ≤ 0.2 |
| TKYG | ≤ 0.2 |
| RYMY | 0.448 |
| RGVK | ≤ 0.2 |
| VPHA | ≤ 0.2 |
| LCQY | ≤ 0.2 |
| LAEV | ≤ 0.2 |
| ADTM | ≤ 0.2 |
| DSDE | ≤ 0.2 |

| Variant | one-hybrid fitness for binding parS DNA |
| --- | --- |
| VLYD | ≤ 0.2 |
| YMLA | ≤ 0.2 |
| HHSG | ≤ 0.2 |
| LSGV | ≤ 0.2 |
| SHPC | ≤ 0.2 |
| LGCV | ≤ 0.2 |
| YTDA | ≤ 0.2 |
| SWPV | ≤ 0.2 |
| HPNS | ≤ 0.2 |
| NKQF | ≤ 0.2 |
| SARQ | 0.205 |
| MIER | ≤ 0.2 |
| RNPN | ≤ 0.2 |
| KNIF | ≤ 0.2 |
| NSKS | ≤ 0.2 |
| HFGC | ≤ 0.2 |
| MNGV | ≤ 0.2 |
| CRLY | ≤ 0.2 |
| ALHL | ≤ 0.2 |
| SRKH | ≤ 0.2 |
| TIIT | ≤ 0.2 |
| DSDD | ≤ 0.2 |
| RAED | ≤ 0.2 |
| GLVR | ≤ 0.2 |

| Variant | one-hybrid fitness for binding parS DNA |
| --- | --- |
| QFIT | ≤ 0.2 |
| HIGT | ≤ 0.2 |
| AAMT | ≤ 0.2 |
| NPPT | ≤ 0.2 |
| DLAC | ≤ 0.2 |
| ARAF | ≤ 0.2 |
| LARH | ≤ 0.2 |
| HTHN | ≤ 0.2 |
| NVGY | ≤ 0.2 |
| IWHC | ≤ 0.2 |
| IKQT | ≤ 0.2 |
| QRLD | ≤ 0.2 |
| KTQL | ≤ 0.2 |
| HTDI | ≤ 0.2 |
| DACV | ≤ 0.2 |
| DQIT | ≤ 0.2 |
| QMHP | ≤ 0.2 |
| KIYG | ≤ 0.2 |
| GAAI | ≤ 0.2 |
| MAPT | ≤ 0.2 |
| YQYR | ≤ 0.2 |
| MCDS | ≤ 0.2 |
| CAGV | ≤ 0.2 |
| ASCK | ≤ 0.2 |

| Variant | one-hybrid fitness for binding parS DNA |
| --- | --- |
| SHMN | ≤ 0.2 |
| TYEA | ≤ 0.2 |
| PISN | ≤ 0.2 |
| MSGD | ≤ 0.2 |
| PKKS | ≤ 0.2 |
| RYIV | ≤ 0.2 |
| CCCR | ≤ 0.2 |
| QWLT | ≤ 0.2 |
| NPRF | ≤ 0.2 |
| LANC | ≤ 0.2 |
| ASNY | ≤ 0.2 |
| AMPD | ≤ 0.2 |
| YKHL | ≤ 0.2 |
| WMTS | ≤ 0.2 |
| QIWR | ≤ 0.2 |
| FQKS | ≤ 0.2 |
| HNPN | ≤ 0.2 |
| NFPH | ≤ 0.2 |
| RRGE | ≤ 0.2 |
| VKFS | ≤ 0.2 |
| ELNF | ≤ 0.2 |
| CQGG | ≤ 0.2 |
| GMYN | ≤ 0.2 |
| RLEW | ≤ 0.2 |

| Variant | one-hybrid fitness for binding parS DNA |
| --- | --- |
| AIFS | ≤ 0.2 |
| SFGS | ≤ 0.2 |
| IAHG | ≤ 0.2 |
| GRGG | ≤ 0.2 |
| DEER | ≤ 0.2 |
| TLQA | ≤ 0.2 |
| EMDK | ≤ 0.2 |
| ARKM | ≤ 0.2 |
| PHDS | ≤ 0.2 |
| KCNA | ≤ 0.2 |
| GENR | ≤ 0.2 |
| WAER | ≤ 0.2 |
| GMDR | ≤ 0.2 |
| EEDS | ≤ 0.2 |
| THVI | ≤ 0.2 |
| EKIY | ≤ 0.2 |
| LKVM | ≤ 0.2 |
| HMTI | ≤ 0.2 |
| PHSC | ≤ 0.2 |
| WMLS | ≤ 0.2 |
| KGIR | ≤ 0.2 |
| PRHD | ≤ 0.2 |
| SWGH | ≤ 0.2 |
| EFNV | ≤ 0.2 |

| Variant | one-hybrid fitness for binding parS DNA |
| --- | --- |
| YPLS | ≤ 0.2 |
| LRNA | ≤ 0.2 |
| TQNF | ≤ 0.2 |
| PSHK | ≤ 0.2 |
| GSME | ≤ 0.2 |
| RIEE | ≤ 0.2 |
| CSSF | ≤ 0.2 |
| HYIC | ≤ 0.2 |
| MKMD | ≤ 0.2 |
| VDSF | ≤ 0.2 |
| GMSL | ≤ 0.2 |
| IPAK | ≤ 0.2 |
| NIYW | ≤ 0.2 |
| IKYR | ≤ 0.2 |
| PFYA | ≤ 0.2 |
| TDRT | ≤ 0.2 |
| PMRF | ≤ 0.2 |
| TFYC | ≤ 0.2 |
| RYNC | 0.86 |
| TTYW | ≤ 0.2 |
| GVLD | ≤ 0.2 |
| PDGC | ≤ 0.2 |
| RNLG | 0.831 |
| ARSW | ≤ 0.2 |

| Variant | one-hybrid fitness for binding parS DNA |
| --- | --- |
| GNSC | ≤ 0.2 |
| GYRI | ≤ 0.2 |
| PRFC | ≤ 0.2 |
| ARPA | ≤ 0.2 |
| DFMR | ≤ 0.2 |
| GKEG | ≤ 0.2 |
| PGRD | ≤ 0.2 |
| MQTR | ≤ 0.2 |
| AFNK | ≤ 0.2 |
| VMGS | ≤ 0.2 |
| EICR | ≤ 0.2 |
| QSGN | ≤ 0.2 |
| SCDT | ≤ 0.2 |
| ATAH | ≤ 0.2 |
| PDLG | ≤ 0.2 |
| NCRS | ≤ 0.2 |
| ITLY | ≤ 0.2 |
| SWQS | ≤ 0.2 |
| ECGR | ≤ 0.2 |
| QLGQ | ≤ 0.2 |
| WLSS | ≤ 0.2 |
| HRRK | ≤ 0.2 |
| VIKR | ≤ 0.2 |
| GTLY | ≤ 0.2 |

| Variant | one-hybrid fitness for binding parS DNA |
| --- | --- |
| FMHS | ≤ 0.2 |
| SYSL | ≤ 0.2 |
| APQP | ≤ 0.2 |
| MCVC | ≤ 0.2 |
| ADVG | ≤ 0.2 |
| QHAM | ≤ 0.2 |
| PQES | ≤ 0.2 |
| DCEC | ≤ 0.2 |
| LPFT | ≤ 0.2 |
| DVTC | ≤ 0.2 |
| KGSH | ≤ 0.2 |
| AFPS | ≤ 0.2 |
| RGEY | ≤ 0.2 |
| ADRV | ≤ 0.2 |
| INGN | ≤ 0.2 |
| MQAV | ≤ 0.2 |
| EPLT | ≤ 0.2 |
| LPHN | ≤ 0.2 |
